The results in this text go back to the supplement of paper PMC10681739.

Whole data set: some 2,700 sequences, median “arbitrary fluorescence units” near 4,100, cut for the highest 2% near 54,000. This is one part of the list.

In the assay the target is T1, ETS1 (UniProt P14921).
T1 sequence: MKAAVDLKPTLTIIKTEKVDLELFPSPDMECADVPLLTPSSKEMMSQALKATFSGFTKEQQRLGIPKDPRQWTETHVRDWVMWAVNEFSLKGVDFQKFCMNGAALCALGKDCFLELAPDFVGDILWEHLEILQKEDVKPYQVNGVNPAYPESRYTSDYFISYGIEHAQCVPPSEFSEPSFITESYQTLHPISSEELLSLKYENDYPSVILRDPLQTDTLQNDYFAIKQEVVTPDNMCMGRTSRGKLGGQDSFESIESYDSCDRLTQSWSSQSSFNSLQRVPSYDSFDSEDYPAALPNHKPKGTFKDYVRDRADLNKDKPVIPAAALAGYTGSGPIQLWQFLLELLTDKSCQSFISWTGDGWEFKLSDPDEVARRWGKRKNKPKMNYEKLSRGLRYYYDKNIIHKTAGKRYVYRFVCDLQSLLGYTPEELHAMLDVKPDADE
As to the kind of experiment: ETS1 binding intensity (PBM fluorescence) (arbitrary fluorescence units); higher = stronger binding. The settings on record: ETS1 concentration 10 nM. As to the method:
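gcPBM on wild-type 36-bp genomic probes with two neighbouring ETS1 sites (4-24 bp apart). Recombinant human ETS1 (10 nM) was detected with anti-ETS1 antibody fluorescence. Values are medians over 3 replicate spots. The probes sit in constant array flanks that are not printed.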
In turn, GATAACTTCCGCTGTCCGCACCCCACTTCCGCCCCG had an ETS1 binding intensity of 36200. The value for CAAACCAGCCGGAAGCGACATCTTCCGGTTGCTACA was 19000; that for GTATCCAGGATGTGGTAGTCTCACCGGAAGGAGCCA was 4490; that for TGAGCGCCGTGCCTTCCGGGTTCCGCCCTCCTGGGT was 1430. The figure for ACAGCTTCCGGTTTTGCAAGACAATGCTTCCTTCTC is 87800. The figure for TTACTCACCGGATGTCTGCCCTGCGGATACATGGCA is 15600. The sequence GGGAGTGAGGGGGAAACGGCAGGATGAAGTTCGCCG gave an ETS1 binding intensity of 283. The sequence ATCTGTTTCCTAAACAAATGGCTACAGGATATGATT came in with an ETS1 binding intensity of 446.

Take AGGGGCGGGGCATCCGTCGCCGGAAGCCTGTACCGT: the ETS1 binding intensity stood at 2810. The value for ACACTTTCTGACTTCCTGTCTTCCTGAAACAATTAC was 30600; that for CTCAACTTCCGGAGGCGGCAGACTTTTTCCGTCAAG was 36700.

GTCCCCGGAAGCGCCCTGAGAGCCACTTCCGGGCCG registered an ETS1 binding intensity of 10400. The value for ACACCAGGATGAGGTTAGACCACTGTTTCCTGTAAA was 704; that for CCGGCCAATGCATTTCCTCTTCCGTCCATGTAATTC was 8260; that for GGGTCCGGAAGCACCATGGACCCCCGGGGAAACGCG was 4070.

In turn, GACCCAGGAAGCACCCGGGCCGTGGCTTCCTGTGAA returned an ETS1 binding intensity of 2090. In the case of TATTCAAAGCCCACTTCCTTCCTGTAGCATTCATTC, the ETS1 binding intensity turned out to be 6220. In turn, TGCAGGATGTATTGGTACAGGCAGCTACGGAAAATA displayed an ETS1 binding intensity of 402. Take TCTCCCTTTCCTGTTGATCATTTCTCTTCCTGTGTT: the ETS1 binding intensity stood at 8220. The value for ACGTTTTCCTGACATTTAAAAATGTCATTTCCTGTG was 7200.

AGTAGTTTCCTGCTTTAGTCTAGCCACATCCTCAGC had an ETS1 binding intensity of 21500.

AGTGTTCCAGGAAGCAGAGGACAGGAAGCATTCTGT registered an ETS1 binding intensity of 1740.

In turn, TAAAAACTACGTTTCCCAGCTTCCTTTGCAGTGAGG came in with an ETS1 binding intensity of 230. For ATGCAGAAAGTGGGAAGTGAGGAAATGAGGGCAGCG, the ETS1 binding intensity turned out to be 232.

GATAACATTTCCCCAGAGATCACAGGAAGCTGCGCA had an ETS1 binding intensity of 566. The figure for GAATGCTCATCCTGCTGCTTTCTGTTTCCTGCCTGG is 4710. With CATCATTATTTCTTCCGCTGGGAAGTGTCTGCTGAG, the ETS1 binding intensity came to 1060. The figure for GCAAACATCCTGTCATAAAAAGACAAGGATGTTGCA is 39900; for TCTACGGAAGTGCGCCGCAGTCCGCCAGTTCCGGCC it is 3130. Sequence AATGCCTCTTCCTGTTGAGGCCACTTCCCTTCTAGG came in with an ETS1 binding intensity of 17900. The value for GGGCGCAAGGAAGCCGGGGTCCTTTTCCGCTGCGCC was 340. The value for CACAGAATTATTTCCTTAGCCAGGATGCAGCTTCAG was 741; that for AGAACAGGAAACACTGTTGAGGGGACGGAAAGAGCA was 6190. For the sequence TTCTTGGCCACATCCGTCTCCCGGAACTGCTCCTTC, the ETS1 binding intensity was determined as 8980. The figure for AGGCCATTTCCGTCGGGTCAGCGATTTCCGCCTTCG is 18500; for GCACCTGCCGTTTCCTGCCCCAGGATGGTGTCCCCA it is 23200; for TCAAGGCCACTTCCTGTGTGACCTTCCTGCTCCTGG it is 38700. Turning to GCTGCAGCCAACAGGATGGGGGAAATGATATCTCGT, the ETS1 binding intensity was 538. Take GTTTACGTAGGGAGGAAGCAGGATGTATAAAGCCCA: the ETS1 binding intensity came to 893. The value for ATCTCACCTTCCTGGTGTCTGGGCTTCCGCAGCTTC was 662; that for GTCACTTCCGGCAGCCGGAGGCAGCAGAGGAAGCCG was 71500; that for CTGAGCCACAGGAAACTCAAGCTTCCTTGTAACACT was 1560. The value for TGCAACATCCTTTGAAATCTAGAAAGAGGAAGTAAT was 7480. The figure for GCCTGGGAGGATGTCGCTAGGAGAGGAAGCCCAGCC is 863; for GCAAAACCCCAGCATCCTGTTTCCTCTGCTGACCCA it is 15700. Sequence TGTGCTTCCTCTCTTTGGGAAGGCACAGGATGCCAC registered an ETS1 binding intensity of 7810.

Regarding TGCAAGCTCTCACTTCCCCTTCCTGTACAGGGCAGG, the ETS1 binding intensity came to 4240.

Consider TGAAAGAAACTTCCCACAGGCAGGAAGTTCAGGGAC, for which the ETS1 binding intensity came out at 2470. The value for TTGCCGGAAACGTAAAAGACAGGGACCGGAACTGAA was 6470; that for GCGCAGCAGCAGGAAGTGGGAGGAAATGCATCTGCT was 7930. The value for CCACAGGAAATTGGTGGGCTAGAGCACAGGAAAAAG was 5150. GGCAGGAAGTGAATGAAGACAAACACAAGGAAATAA had an ETS1 binding intensity of 6160. As for TGACCGTTTGGCGGATGCGCAGGAAGCGGCCGCGCT, the ETS1 binding intensity came to 1510.

Turning to CCAGCCGACTTCCGGGGTGGGGCTTCCTGCCGCAGA, the ETS1 binding intensity was 44500.

In turn, TGGGGTTTCCTGGGGTGTTCTGTCTACATCCTGAGA displayed an ETS1 binding intensity of 5150. The figure for CGGACTTCCGGGGTCAAAAAGCACGACCTTCCGGGA is 51600. The figure for GCTTCAAACATCCTTGAAAAACAGGATGTCTCTTAA is 3280. The value for GGTAAGACACAGGAAAACGTGCTTCCGGTTCTCGGC was 16500; that for TGTGCCTTGGCTTCCTTCGCCAGGAAATGCGAGTGA was 796.

Consider TGTGTTTCCTGAGGCCTTTCAGCCATGCTTCCTGTA, for which the ETS1 binding intensity was found to be 5030. AAAGTTCAGGAAACTAGTTCTTCAGGATGTGGGCAG yielded an ETS1 binding intensity of 329. The value for GCCCGTCGGAGACTTCCGCTTCCGGGGCCGCCGCCA was 44100; that for GCAGAAGCAGGAAGAGAGCTGGCCGGAAGACACTTA was 2260.
